Values joined by “and” are separate entries in the source; they are usually repeats but may differ in a detail not shown here. Identical values can stand only once. Among all 420,000 compounds or so, about 50,000 (12%) were called active. Inconclusive results, whose numbers are uncertain, are shown with a selection of clear calls. Calls come from the whole dose curve; as a rule, active = well fitted inhibition curve with a large enough effect; inconclusive = small, poorly fitted or top-dose-only effect; inactive = flat fitted curve, though single readings scatter. Potencies beside an inconclusive call are fits to weak or partial responses and may not hold up.
assay: qHTS for Inhibitors of human tyrosyl-DNA phosphodiesterase 1 (TDP1): qHTS in cells in presence of CPT; settings: chicken DT40 Tdp1-/-;hTDP1 cells + 20 nM CPT, ATP luminescence, 48 h; activity change, negative = growth inhibition: at 46.2 µM (top of the series) unless noted; note: nearly all actives have a fitted effect of over 55% in size
How it was run: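 Cell growth measured by CellTiter-Glo luminescence after a minimum 48 h, 37 C compound exposure with 20 nM CPT in Tdp1-knockout DT40 cells stably expressing hTDP1, seeded 400/well; qHTS titration format.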
% is set by controls: 0 for no effect and ±100 for the full control effect; potency is the fitted concentration of half-maximal effect; tags give direction and shape of the fitted curve.

Row | Compound | Potency | activity change, negative = growth inhibition
1 | CCOC(=O)c1c(-c2ccc(C)o2)csc1NC(=O)CSc1nncs1 | active: 23.1 µM | –
2 | O=C(c1ccco1)N1CCC2(CC1)CCN(c1ccccc1)CC2 | inconclusive: 29.1 µM [inhibitor, single point] | –
3 | Cc1ccc(-c2ccc3c(c2)O[C@H](CN(C)C(=O)Nc2ccc(C(F)(F)F)cc2)[C@H](C)CN([C@H](C)CO)S3(=O)=O)cc1 | inconclusive: 29.1 µM [inhibitor, single point] | –
4 | COc1ccccc1NC(=O)CSC1=Nc2ccccc2C2=NC(CCC(=O)NCCc3ccccc3)C(=O)N12 (centres undefined) | inconclusive: 20.6 µM [inhibitor, single point] | –
5 | Cc1ccc2oc(=O)c3cc(C(=O)NCCCN4CCc5ccccc5C4)sc3c2c1 | active: 18.4 µM | –
6 | CCOC(=O)c1c(C)oc2ncnc(Nc3ccc(OC)cc3OC)c12 | inactive | –
7 | O=c1[nH]cnc(O)c1N=Nc1ccccc1 | inconclusive: 20.6 µM [inhibitor, single point] | –
8 | CC1(C)CC(=O)c2cc(OCC(=O)NCCCN3CCN(c4ccc(F)cc4)CC3)ccc2O1 | active: 11.2 µM | –
9 | COc1cc(C2C(C(C)=O)=C(O)C(=O)N2CCc2ccc(OC)c(OC)c2)ccc1O (centres undefined) | inactive | –
10 | CCN(CC)CCOCCOC(=O)C(CC)(CC)c1ccccc1 | inconclusive: 29.9 µM [inhibitor, single point] | –
11 | O=C(OCCN1C(=O)c2ccccc2C1=O)c1cc(S(=O)(=O)N2CCOCC2)ccc1F | inactive | –
12 | CC1CCC2(CC1)NC(=O)N(CC(=O)N1CCN(C(=O)c3ccco3)CC1)C2=O (centres undefined) | inactive | –
13 | COc1ccc(C(=O)NC(=S)NNC(=O)Cc2cccs2)cc1 | inconclusive: 29.1 µM [inhibitor, single point] | –
14 | COc1ccc(N2CCN(C(c3ccccc3)c3sc4nc(-c5ccco5)nn4c3O)CC2)cc1 (centres undefined) | inconclusive: 29.1 µM [inhibitor, single point] | –
15 | COCC1CCN(C(=O)C2CCC(=O)N(Cc3cccc(F)c3)C2)CC1 (centres undefined) | inactive | –
16 | COc1ccc(NC(=O)O/N=C/c2ccc(Br)cc2)cc1 | inactive | –
17 | CC(=O)Nc1cc(-c2cccc(C(=O)N(C)C)c2)cn2c(-c3cccc(C(=O)N(C)C)c3)cnc12 | inconclusive: 29.1 µM [inhibitor, partial curve] | –
18 | Cn1ccnc1SCC(=O)c1cccc(C(F)(F)F)c1 | inactive | –
19 | O=C(NC1CCOCC1)C1CCC(=O)N(CCc2ccc(Cl)cc2)C1 (centres undefined) | inactive | –
20 | CC(c1ccccc1F)n1cc(C(=O)NCCc2ccco2)nn1 (centres undefined) | inconclusive: 29.1 µM [inhibitor, single point] | –
21 | COc1ccc(-c2noc(CSc3nnc(C)n3-c3ccc(C)cc3)n2)cc1OC | inconclusive: 29.1 µM [inhibitor, single point] | –
22 | CN1C(=O)Cc2cc(S(=O)(=O)NCCc3ccc(Cl)cc3)ccc21 | inconclusive: 29.1 µM [inhibitor, single point] | –
23 | O=c1cc(-c2cccc(Br)c2)nc(-c2ccccc2F)o1 | active: 25.9 µM | –

Row | Compound | Potency | activity change, negative = growth inhibition
24 | O=C(CSCc1cnn(-c2ccccc2)c1-n1cccc1)NCc1ccc(Cl)cc1 | inconclusive: 23.1 µM [inhibitor, single point] | –
25 | Cc1sc2nc(CN3CCOCC3)[nH]c(=O)c2c1-c1ccccc1 | inactive | –
26 | CCCOc1ccc(NC(=O)CC2C(=O)N(c3cccc(OC)c3)C(=O)N2Cc2cccs2)cc1 (centres undefined) | inconclusive: 29.1 µM [inhibitor, single point] | –
27 | COc1cccc(Nc2nc(-c3ccccc3O)nc3ccccc23)c1 | inconclusive: 25.9 µM [inhibitor, single point] | –
28 | COc1ccccc1Nc1nc2nonc2nc1N1CCCCC1C (centres undefined) | inconclusive: 29.1 µM [inhibitor, single point] | –
29 | COc1ccc(NC(=O)C2C3C=CC(C3)C2C(=O)NCc2ccccn2)c(OC)c1 (centres undefined) | inconclusive: 20.6 µM [inhibitor, single point] | –
30 | Cc1ccccc1-c1nc(CSc2nc3c(c(=O)[nH]2)CCC3)c(C)o1 | inconclusive: 18.4 µM [inhibitor, single point] | –
31 | CC(NC(=O)c1cc(COc2ccccc2)on1)c1nccs1 (centres undefined) | – | inconclusive: -33.6% [inhibitor]
32 | Cc1ccccc1Nc1nn2c(=O)c3ccccc3nc2s1 | inconclusive: 29.1 µM [inhibitor, single point] | –
33 | O=C(CNC(=O)c1ccccc1Cl)Nc1ccc(F)cc1 | inconclusive: 0.291 µM [inhibitor, full curve, poor fit] | –
34 | CN1CCN(c2cccc3c2S(=O)(=O)N[C@@H](Cc2ccccc2)CO3)CC1 | inconclusive: 29.1 µM [inhibitor, single point] | –
35 | CC1CCCN(CCOc2cccc(Oc3ccccc3)c2)C1 (centres undefined) | active: 25.9 µM | –
36 | CCOC(=O)N1CCN(c2ccc([N+](=O)[O-])cc2F)CC1C (centres undefined) | inconclusive: 13 µM [inhibitor, single point] | –
37 | CCOC(=O)CC(=O)CSc1nc2sc(C)cc2c(=O)n1Cc1ccco1 | active: 16.4 µM | –
38 | COc1cc(OC)cc(-c2cc3nc(C)c(CCC(=O)NCc4ccccc4)c(C)n3n2)c1 | inconclusive: 29.1 µM [inhibitor, single point] and inconclusive: 29.1 µM [inhibitor, partial curve, poor fit] | –
39 | COc1ccc(S(=O)(=O)NCC(c2ccc(F)cc2)N2CCOCC2)cc1Br (centres undefined) | inconclusive: 18.4 µM [inhibitor, single point] | –
40 | Cc1cc(C=O)c(C)n1-c1ccc(N2CCOCC2)c([N+](=O)[O-])c1 | inconclusive: 3.66 µM [inhibitor, partial curve] | –
41 | Cc1ccc(S(=O)(=O)N2CCN(C(=O)c3n[nH]c(=O)c4ccccc34)CC2)cc1 | inconclusive: 5.17 µM [inhibitor, single point] | –
42 | CCOc1ccccc1NC(=S)N1C2CCC1CC(NC(=O)NC13CC4CC(CC(C4)C1)C3)C2 (centres undefined) | inconclusive: 25.9 µM [inhibitor, partial curve] | –
43 | Cc1cc(F)ccc1S(=O)(=O)Nc1ccc2oc3c(c2c1)CC(C)CC3 (centres undefined) | inconclusive: 20.6 µM [inhibitor, single point] | –
44 | COc1ccccc1CN(C)CC(=O)Nc1cccc(S(=O)(=O)N2CCCCC2)c1 | active: 16.4 µM | –
45 | NC(=O)c1ccccc1NC(=O)Nc1ccc(F)c(Cl)c1 | inconclusive: 16.4 µM [inhibitor, single point] | –
46 | CC(C)C[C@@H]1Cc2[nH][nH]c(=O)c2[C@H](CCc2ccccc2)O1 | inconclusive: 16.4 µM [inhibitor, single point] | –

Row | Compound | Potency | activity change, negative = growth inhibition
47 | S=C(NC1CC1)N1CCN(c2ccc(Cl)cc2)CC1 | active: 14.6 µM | –
48 | Cc1csc(NC(=O)C2CCN(S(=O)(=O)c3ccccc3)CC2)n1 | inconclusive: 23.1 µM [inhibitor, single point] | –
49 | Cc1nc2ccn(Cc3ccccc3)c(=O)c2cc1C(=O)N1CCN(c2ccccc2F)CC1 | inconclusive: 29.1 µM [inhibitor, single point] | –
50 | Cc1cc(C)cc(NC(=S)Nc2ccc(Cl)c(Cl)c2)c1 | inconclusive: 20.6 µM [inhibitor, single point] | –
51 | COC(=O)C1(C(=O)OC)C[C@H](c2ccc(OC)cc2)N(Cc2ccccc2OC)[C@@H]1c1ccc(OC)cc1 | inconclusive: 10.3 µM [inhibitor, single point] | –
52 | O=C(/C=C/c1cccc(C(F)(F)F)c1)Nc1cccc(C(F)(F)F)c1 | active: 23.1 µM | –
53 | CCOC(=O)[C@H]1[C@H]2COc3ccc(C)cc3[C@@H]2N2C(=O)CN(Cc3ccc(C)cc3)C(=O)[C@@]12C | inconclusive: 29.1 µM [inhibitor, single point] | –
54 | CC(C)NC(=O)C1CCN(Cc2cnn(-c3ccccc3)c2-n2cccc2)CC1 | – | inconclusive: -31% [inhibitor]
55 | ON(CCc1ccncc1)Cc1ccccc1 | inconclusive: 16.4 µM [inhibitor, partial curve] | –
56 | CC1CCN(S(=O)(=O)N2CCCC(C(=O)NCc3ccccc3Cl)C2)CC1 (centres undefined) | inactive | –
57 | CCCCn1nnnc1-c1nc2ccccc2[nH]c1=O | inactive | –
58 | O=C(CN1C(=O)NC2(CCCCC2)C1=O)NCc1ccc2c(c1)OCO2 | inactive | –
59 | COc1ccc(-c2csc(Nc3ccc(O)cc3)n2)cc1 | active: 10.3 µM | –
60 | COc1ccc2[nH]cc(CCNc3cc(-c4ccccc4Cl)ncn3)c2c1 | inconclusive: 20.6 µM [inhibitor, partial curve, poor fit] | –
61 | O=[N+]([O-])c1ccc(S(=O)(=O)N2CCN(Cc3c[nH]c4ccccc34)CC2)cc1 | inconclusive: 25.9 µM [inhibitor, single point] | –
62 | CC(C)c1nc2ccccc2n1CC(O)COC1CCCCC1 (centres undefined) | inconclusive: 29.1 µM [inhibitor, single point] | –
63 | Cc1ccc(-c2cnn(-c3ccccc3)c2N)cc1 | – | inconclusive: -30.6% [inhibitor]
64 | CCc1nc2sc3c(c2c(=O)n1N)CCC3 | inconclusive: 20.6 µM [inhibitor, single point] | –
65 | COCc1cc(C)nc2sc(C(=O)Nc3ccccc3OC)c(N)c12 | inconclusive: 29.1 µM [inhibitor, single point] | –
66 | CCOC(=O)c1csc(NNC=O)n1 | inactive | –
67 | O=C(Nc1ccccc1F)Nc1ccc([N+](=O)[O-])cc1Cl | inconclusive: 18.4 µM [inhibitor, single point] | –
68 | NS(=O)(=O)c1ccc(NC(=O)/C=C/c2cccs2)cc1 | inactive | –
69 | CCCCN1C(=N)N([C@@H](C)CN2CCC[C@H]2CN2C(N)=NC[C@H]2CC(C)C)C[C@H]1[C@H](C)CC | active: 23.1 µM | –

— PubChem BioAssay AID686979 (National Center for Advancing Translational Sciences (NCATS), 2013)
